Data: PubChem BioAssay AID588855 (National Center for Advancing Translational Sciences (NCATS), 2011)
Among all 410,000 compounds or so, about 5,000 (1.2%) were called active. This list was built around the results that the source calls inconclusive (neither active nor inactive); the mix of calls is not that of the screen. Calls follow the shape of the dose curve; as a rule, active = well fitted inhibition curve with a large enough effect; inconclusive = small, poorly fitted or top-dose-only effect; inactive = no such curve, though single readings can be large or run the other way. Where the call is inconclusive, the potency comes from a doubtful curve fit.

Test: qHTS for Inhibitors of TGF-b; also: nearly all actives have a fitted effect of over 65% in size
Conditions: HepG2 CAGA-GFP TGF-b/SMAD3 reporter, GFP fluorescence, 18 h, TGF-beta stimulated, 500 pg/mL final; series mostly up to 46.1 µM; activity, negative = inhibition: at the top concentration
How it was run: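 GFP signal (ex488/em500-530) from TGF-beta-stimulated HEPG2 CAGA-GFP cells, 500 pg/mL final, 18 h at 37 degrees C in DMEM plus 1% FBS, normalized to unstimulated and DMSO-stimulated controls.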
% is scaled to controls: 0 for no effect and ±100 for the full control effect; potency is read from the fitted curve at half-maximal effect; tags tell the direction and shape of the fitted curve.

SMILES	activity, negative = inhibition	Potency
CN(c1ccccc1C(=O)Nc1ccccc1-c1ccccc1)S(C)(=O)=O	inactive: 3.57%	
COc1cccc(CNC(=O)CCc2c(C)nn(-c3ccc(N4CCOCC4)nn3)c2C)c1		inconclusive: 2.24 µM [inhibitor, partial curve, poor fit]
O=C(COC(=O)CSc1ccc([N+](=O)[O-])cc1)NCCc1ccccc1	inactive: 0%	
Brc1ccc(Oc2nnnn2-c2ccccc2)cc1	inactive: -3.08%	
COC(=O)c1cccc(NC(=O)Nc2ccc(Cl)cc2)c1		inconclusive: 6.31 µM [inhibitor, full curve]
Cc1ccc(OCCCCc2c(C)n[nH]c2C)cc1		inconclusive: 20 µM [inhibitor, single point]
O=C(c1ccc([N+](=O)[O-])s1)N1CCN(c2ccccn2)CC1		inconclusive: 12.6 µM [inhibitor, partial curve, poor fit]
c1ccc(-c2nc(CSc3n[nH]c(-c4cccs4)n3)cs2)cc1	inactive: -3.08%	
Cc1ccc(OCC(=O)N2CCc3ccccc3C2)c(C)c1		inconclusive: 22.4 µM [inhibitor, single point]
CCOc1cc(/C=C2\COc3ccccc3C2=O)ccc1OCC(=O)N(C)C		inconclusive: 22.4 µM [inhibitor, single point]
CCOC(=O)C1=C(CN2CCN(C(=O)c3ccco3)CC2)NC(=O)NC1c1ccc(OC)cc1 (stereo unspecified)	inactive: -6.24%	
CCCOc1cccn2c(N(C)C(=O)c3ccccc3F)c(CC)nc12		inconclusive: 35.5 µM [inhibitor, single point]
S=c1[nH]c2ccccc2n1CCc1ccncc1		inconclusive: 14.1 µM [inhibitor, partial curve]
CCn1cc(S(=O)(=O)c2ccc(C)cc2C)c(=O)c2cc(F)c(N3CCCC3)cc21		inconclusive: 35.5 µM [inhibitor, partial curve, poor fit]
Nc1cc(=O)[nH]c(SCC(=O)N2CCCc3ccccc32)n1	inactive: -10%	
CCc1cc(C(=O)N2CCCC(CCC(=O)N3CCN(c4ccccn4)CC3)C2)no1 (stereo unspecified)		inconclusive: 7.08 µM [inhibitor, partial curve, poor fit]
Cn1[nH]c2c(c1=O)[C@H](c1ccc(F)cc1)O[C@H](CCc1ccccc1)C2		inconclusive: 35.5 µM [inhibitor, single point]
C=C(C)C(=O)O[C@H]1C/C(C)=C\C(=O)/C=C(\C)[C@H](O)[C@@H]2OC(=O)C(=C)[C@@H]21		active: 3.55 µM
O=C(Nc1ccc(Cl)c(S(=O)(=O)N2CCOCC2)c1)c1ccccn1	inactive: -5.31%	
CC(C)(C)c1ccc(COC(=O)Nc2ccc(F)cc2)cc1	inactive: -15.6%	
Cc1cc(C)cc(OCCSc2nc(-c3ccc(C(C)(C)C)cc3)nc3cc(=O)[nH]n23)c1		inconclusive: 12.6 µM [inhibitor, partial curve, poor fit]
COC(=O)c1c(NC(=O)COc2ccc(OC)cc2)sc2c1CCC(C)C2 (stereo unspecified)		active: 12.6 µM

SMILES	activity, negative = inhibition	Potency
COCCn1cnnc1SCC(=O)Nc1ccc(N2CCCCC2)cc1		inconclusive: 35.5 µM [inhibitor, single point]
Cc1cc2c(cc1C)N[C@]1(C[C@H]3CCC(=O)N4CC[C@@H](C1)[C@@H]34)C(=Nc1ccccc1C)N2		inconclusive: 11.2 µM [inhibitor, partial curve, poor fit]
COCCNC(=S)N/N=C/c1c2ccccc2cc2ccccc12		inconclusive: 35.5 µM [inhibitor, single point]
COc1ccc(S(=O)(=O)N(C)C)cc1NC(=O)COC(=O)c1nc2nccc(C)n2n1	inactive: -1.96%	
O=C(Nc1cccc(-c2cn3c(n2)SCC3)c1)c1ccc2c(c1)OCO2	inactive: -8.57%	
Cc1cc(C)n(-c2cc(N3CCN(S(=O)(=O)c4ccc5ccccc5c4)CC3)ccc2[N+](=O)[O-])n1		inconclusive: 31.6 µM [inhibitor, single point]
COCCCNC(=S)N1CCN(c2nc(-c3ccc(F)cc3)cs2)CC1		inconclusive: 12.6 µM [inhibitor, partial curve, poor fit]
Cc1ccc(NC(=O)c2cccnc2C(=O)Nc2ccc(C)cc2)cc1	inactive: -10.9%	
CCS(=O)(=O)Nc1ccc(-c2cc(-c3ccccc3)c3cc(C)ccc3n2)cc1		inconclusive: 0.355 µM [inhibitor, full curve, poor fit]
CCc1ccc(NC(=O)c2cc3c(C)nc4ccccc4c3o2)cc1		inconclusive: 12.6 µM [inhibitor, partial curve, poor fit]
COc1ccc(Cl)cc1C(=O)Nc1ccc(S(N)(=O)=O)cc1		inconclusive: 35.5 µM [inhibitor, single point]
COc1ccc(/C=N/NC(=O)c2nc(-c3ccccc3)cc(-c3ccccc3)n2)cc1	inactive: 19.1%	
CCC(=O)N1CCc2cc(S(=O)(=O)NC(Cc3ccccc3)C(=O)NCc3ccc(F)cc3)ccc21 (stereo unspecified)	inactive: 20.1%	
Cn1c(-c2ccc(F)cc2)cnc1NCc1ccc(F)cc1F	inactive: 13.6%	
Cc1ccc(OCCCC(=O)NCc2ccco2)cc1		inconclusive: 14.1 µM [inhibitor, single point]
COc1ccc(-n2nc3cc(C)c(NC(=O)c4ccc(C)cc4C)cc3n2)cc1Cl		inconclusive: 0.398 µM [inhibitor, full curve]
CS/C(N)=N/N=C/c1cc(C)ccc1O		inconclusive: 12.6 µM [inhibitor, single point]
Cn1cc(CN2CCC(C(O)c3cccs3)CC2)c(-c2cccc(Cl)c2)n1 (stereo unspecified)	inactive: 0.778%	
C[C@H]1CN([C@@H](C)CO)S(=O)(=O)c2ccc(Br)cc2O[C@H]1CN(C)Cc1ccc(F)cc1	inactive: -10.7%	
CCOC(=O)CN1C(=O)C(CC)Oc2ccccc21 (stereo unspecified)		inconclusive: 14.1 µM [inhibitor, single point]
O=C(N/N=C/c1c(O)ccc2ccccc12)c1cccc(C(F)(F)F)c1		inconclusive: 4.47 µM [inhibitor, partial curve]
O=C(COc1ccccc1Cl)Nc1ccc(N2CCN(C(=O)c3ccccc3)CC2)cc1		inconclusive: 35.5 µM [inhibitor, single point]

SMILES	activity, negative = inhibition	Potency
CCC1CN(C(=O)Nc2cc(OC)cc(OC)c2)c2ccccc2S1 (stereo unspecified)		inconclusive: 12.6 µM [inhibitor, single point]
O=C1C(=Cc2cn(-c3ccccc3)nc2-c2ccc(OCc3ccc(Cl)cc3)cc2)SC(=S)N1CCS(=O)(=O)O	inactive: -13.6%	
Cc1ccc(S(=O)(=O)/N=C(\Nc2cccc(C)c2)Nc2nc(C)cc(C)n2)cc1		inconclusive: 20 µM [inhibitor, single point]
O[C@@H]1CN(Cc2cccs2)[C@@H](c2ccc(Cl)cc2)C[C@H]1n1cc(-c2ccc(F)cc2)nn1		inconclusive: 35.5 µM [inhibitor, single point]
Cc1cc(C)nc(NS(=O)(=O)c2ccc(Br)s2)c1		inconclusive: 17.8 µM [inhibitor, single point]
CC(=O)O[C@H]1C(=O)[C@]2(C)[C@H]([C@H](OC(=O)c3ccccc3)[C@]3(O)C[C@H](OC(=O)[C@H](O)[C@@H](NC(=O)c4ccccc4)c4ccccc4)C(C)=C1C3(C)C)[C@]1(OC(C)=O)CO[C@@H]1C[C@@H]2O		inconclusive: 35.5 µM [inhibitor, single point]
CC(C)(C)NC(=O)CN(C(=O)Cn1nnc(-c2ccccc2F)n1)c1cccc2c1CCCC2		inconclusive: 35.5 µM [inhibitor, single point]
CN(C)S(=O)(=O)c1cccc(NC(=O)CCSc2ccc(Cl)cc2)c1		inconclusive: 5.01 µM [inhibitor, partial curve, poor fit]
O=C(CNCc1ccc(F)cc1)Nc1cc(S(=O)(=O)N2CCOCC2)ccc1Cl	inactive: -1.04%	
Cc1nc(CCNC(=O)c2cccs2)cs1		inconclusive: 5.62 µM [inhibitor, single point]
Cn1c(SCC(=O)N2CCOCC2)nc2sc3c(c2c1=O)CCCC3	inactive: -14.8%	
O=C(Cn1c(=O)oc2cc(S(=O)(=O)NCc3ccccc3)ccc21)N(CCO)Cc1ccccc1		inconclusive: 35.5 µM [inhibitor, single point]
COc1ccccc1C(=O)Nc1ccc2c(c1)nc1n2CCN(C2CCCCC2)C1	inactive: -16.1%	
COc1ccc(OC)c2sc(NC(=O)CCS(=O)(=O)c3ccccc3)nc12		inconclusive: 5.01 µM [inhibitor, full curve]
C=CCC1(CC=C)CCCN1C(=O)c1cc(COc2ccc(C)nc2)on1		inconclusive: 3.55 µM [inhibitor, full curve, poor fit]
CN(CC(=O)Nc1ccc(N2CCOCC2)cc1)C(=O)CCCOc1ccc(Cl)cc1Cl		inconclusive: 11.2 µM [inhibitor, single point]
CNC(=S)Nc1ccc(-c2nc3ccc(C)cc3s2)cc1		inconclusive: 14.1 µM [inhibitor, single point]
O=S1(=O)CCOC[C@H](CC2CCCCC2)N1Cc1cccc(Cl)c1		active: 15.8 µM
O=C(Cn1cc(C(F)(F)F)ccc1=O)Nc1ccccc1	inactive: -12.6%	
O=C(CON=C1c2ccccc2-c2ccccc21)NC12CC3CC(CC(C3)C1)C2		inconclusive: 35.5 µM [inhibitor, single point]
COc1ccc(-n2c(O)c(/C=N/NS(=O)(=O)c3cccc([N+](=O)[O-])c3)c3ccccc3c2=O)cc1OC		inconclusive: 35.5 µM [inhibitor, single point]
Cc1ccc(CN2C(=O)C(=O)c3cc(C)ccc32)cc1		inconclusive: 28.2 µM [inhibitor, single point]
